# From publication PMC4336329 (PLoS ONE, 2015)
# The campaign covered roughly 310,000 compounds. About 14,000 (4.5%) showed an effect of 50% or more. Effects have a minus sign here. The list shows a part of the results.
# Target: human ether-à-go-go-related gene (hERG) potassium channel (human, UniProt Q12809)
# Test: primary screen, population patch clamp on CHO cells stably expressing hERG
# 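Further: peak tail current of the secondary pulse compared with the same well before compound.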
# human ether-à-go-go-related gene (hERG) potassium channel, sequence (Q12809 whole entry, looked up): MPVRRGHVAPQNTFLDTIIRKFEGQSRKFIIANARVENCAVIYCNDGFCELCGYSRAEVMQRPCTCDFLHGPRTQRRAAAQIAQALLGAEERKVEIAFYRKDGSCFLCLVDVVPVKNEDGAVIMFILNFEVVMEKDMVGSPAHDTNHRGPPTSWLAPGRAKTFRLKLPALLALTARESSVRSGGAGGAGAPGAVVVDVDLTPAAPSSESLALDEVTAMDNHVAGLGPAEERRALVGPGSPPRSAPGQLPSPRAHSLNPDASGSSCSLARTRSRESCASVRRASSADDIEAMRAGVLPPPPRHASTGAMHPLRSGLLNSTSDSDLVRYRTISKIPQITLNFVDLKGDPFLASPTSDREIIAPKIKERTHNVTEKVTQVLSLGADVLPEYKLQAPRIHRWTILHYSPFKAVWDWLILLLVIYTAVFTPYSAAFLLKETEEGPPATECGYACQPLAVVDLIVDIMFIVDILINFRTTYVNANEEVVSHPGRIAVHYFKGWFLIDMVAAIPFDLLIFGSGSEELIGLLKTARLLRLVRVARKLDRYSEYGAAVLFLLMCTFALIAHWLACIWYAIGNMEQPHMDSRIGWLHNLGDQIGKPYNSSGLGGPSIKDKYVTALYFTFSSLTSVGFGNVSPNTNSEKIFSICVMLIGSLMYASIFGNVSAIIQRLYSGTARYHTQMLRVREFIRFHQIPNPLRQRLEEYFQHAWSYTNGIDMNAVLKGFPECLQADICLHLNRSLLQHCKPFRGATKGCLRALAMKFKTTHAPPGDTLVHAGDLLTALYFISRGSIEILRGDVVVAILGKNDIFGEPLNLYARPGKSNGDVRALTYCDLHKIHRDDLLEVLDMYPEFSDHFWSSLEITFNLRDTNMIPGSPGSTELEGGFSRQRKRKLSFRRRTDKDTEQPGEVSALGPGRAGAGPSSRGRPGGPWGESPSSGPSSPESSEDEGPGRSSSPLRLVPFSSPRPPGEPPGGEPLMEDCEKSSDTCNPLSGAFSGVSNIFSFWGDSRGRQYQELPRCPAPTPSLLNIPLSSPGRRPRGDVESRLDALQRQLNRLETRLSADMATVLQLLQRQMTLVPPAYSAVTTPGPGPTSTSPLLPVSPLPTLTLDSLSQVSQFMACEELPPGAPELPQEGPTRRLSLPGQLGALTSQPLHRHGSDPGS
row,SMILES,"hERG current change (%, negative = inhibition) at 10uM [%]"
1,COc1cccc(C(=O)NCCC(=O)NCc2cc(=O)n(C)c(=O)n2C)c1,13.9
2,CCOC(=O)c1sc2ncnc(NCC(c3cccs3)N(C)C)c2c1C (stereo not shown),5.57
3,O=C(c1c[nH]c2ccccc12)C(F)(F)F,-5.59
4,CCSc1nnc2c(n1)OC=Nc1ccc(Br)cc1-2,-6.1
5,CC1CC2c3cccc(C(=O)O)c3C(=O)N2c2ccc(Cl)cc21 (stereo not shown),5.97
6,COC(=O)Cc1nc(Nc2ccccc2)sc1C,12.8
7,Cc1cccc(CNc2ncc(-c3cccc([N+](=O)[O-])c3)n2C)c1.O=C(O)C(=O)O,-71.1
8,Cn1[nH]c(CSc2ccc(Cl)cc2)cc1=O,12.7
9,COc1cccc(N(CC(=O)NCC2CCCO2)C(=O)CCC(=O)Nc2nccs2)c1 (stereo not shown),16.3
10,C=CCn1c(-c2ccc(Cl)cc2)c[nH]c1=S,19.4
11,O=C(C1=C[C@@H](C2CC2)C[C@@H](OCc2ccc(CO)cc2)O1)N1CCN(Cc2ccccc2)CC1,-58.7
12,CC(=O)c1ccc(N2CCN(C(=O)c3ccc4nc[nH]c4c3)CC2)cc1,3.37
13,CCOC(=O)C1(CCOc2ccccc2)CCN(Cc2ccc(C)o2)CC1,-75
14,CCn1c(=O)cc(N2CCN(Cc3ccccc3)CC2)[nH]c1=O,6.79
15,COc1ccc(-c2cc(C(=O)Nc3ccccc3F)on2)cc1,23.3
16,Cc1ccc(C(C)NC(=O)c2ccc3c(c2)OCO3)cc1C (stereo not shown),-47.7
17,COc1cccc(NC(=O)CN(C)S(=O)(=O)/C=C/c2ccccc2)c1,-20.7
18,Cc1cccc(N/C=C(\[N+](=O)[O-])S(=O)(=O)c2ccccc2)c1,24.2
19,Cc1ccc(NC(=O)CCS(=O)(=O)c2cccc3nonc23)c(Br)c1,6.97
20,O=C1CCc2ccc(NC(=O)C3CC3)cc2N1,0.309
21,O=C(c1ccccn1)N(Cc1cccs1)C1(C(=O)NC2CCCCC2)CCCCC1,17.1
22,CCN(CC)CCN1C(=O)c2oc3ccc(F)cc3c(=O)c2C1c1ccncc1 (stereo not shown),-7.67

row,SMILES,"hERG current change (%, negative = inhibition) at 10uM [%]"
1,COc1cc(OC)cc(N(C(=O)CNC(=O)c2cccs2)C(C(=O)NCC2CCCO2)c2ccccc2)c1 (stereo not shown),9.26
2,Br.C=CCn1c(=N)n(CC(=O)c2ccc(Br)s2)c2ccccc21,-58.6
3,Cn1c(-c2ccc(F)cc2)cnc1NCc1ccc(F)cc1,-40.7
4,O=C(CCN1CCN(CC(=O)Nc2ccccc2Cl)CC1)Nc1ccccc1F,-69.1
5,O=C(Nc1cccnc1)c1cnn2c(C(F)F)cc(C3CC3)nc12,-57.6
6,CN(C)CCSc1nc(-c2ccccc2)nc2c1COC(C)(C)C2,-69.1
7,O=C(O)CCCNS(=O)(=O)c1cccc2nsnc12,26.7
8,Cc1ccc(S(=O)(=O)NC(=O)Nc2cc(C)ccc2F)cc1,-5.64
9,C[C@@H](NC(=O)c1[nH]cnc1C(=O)Nc1nccs1)c1ccccc1,-3.32
10,Nc1scc2c(C(=O)O)nn(-c3ccccc3)c(=O)c12,-4.16
11,O=C(COc1ccc2ccccc2c1)Nc1ccc2c3c(cccc13)CC2,3.91
12,O=C(NCc1ccccc1)C1CCC(=O)N(CC2CCCCC2)C1 (stereo not shown),9.03
13,O=C(O)CSc1nnc(CSc2nc3ccccc3s2)n1-c1ccccc1,17
14,CC(C)NC(=O)CSc1nc2sccc2c(=O)n1-c1ccccc1,10.8
15,CC(C)C(=O)NC(C)C(c1cccs1)N1CCOCC1 (stereo not shown),5.94
16,NC(=O)COc1ccc(/C=N/NC(=O)C2CCCN2S(=O)(=O)c2ccc(Cl)cc2)cc1 (stereo not shown),17.1
17,O=C(Nc1ccccc1)c1cn2ccccc2n1,-2.28
18,COCCn1c(SCc2cccnc2)nnc1-c1ccco1,3.7
19,O=C(Nc1nc(-c2ccc(F)cc2)cs1)c1cccc(N2C(=O)CCC2=O)c1,9.67
20,CSc1nc(N2CCOCC2)c2sccc2n1,-2.64
21,CC(C)[C@H](Nc1ccc(S(=O)(=O)N2CCOCC2)cc1[N+](=O)[O-])C(=O)OCC(=O)N(C(C)C)C(C)C,-22.5
22,CC1CCCN(c2ccc(C(=O)N3CCC4(CC3)OCCO4)cc2[N+](=O)[O-])C1 (stereo not shown),-0.496

row,SMILES,"hERG current change (%, negative = inhibition) at 10uM [%]"
1,CCCCOc1ccc(Cc2c(O)nc(SC)[nH]c2=O)cc1,18.9
2,Cc1ccc(-c2csc(NC(=O)c3ccc([N+](=O)[O-])o3)n2)cc1,6.85
3,COC(=O)c1ccccc1NC(=O)Nc1cc(C(C)(C)C)on1,13.5
4,O=[N+]([O-])c1ccc(-c2cnc(SC(c3ccccc3)c3ccccc3)[nH]2)cc1,11.1
5,CC(C)(CN1CCN(c2ccccc2)CC1)NS(=O)(=O)c1ccccc1,-14.2
6,COc1ccc(/C=C/C(=O)NC(=S)NNC(=O)c2cccs2)cc1,24.9
7,O=C(CNC(=O)C1CCCCC1)Nc1ccc(Cl)cc1,13.9
8,CCOc1ccc(CN(C)C(=O)c2ccc(S(=O)(=O)N(C)c3ccccc3OC)cc2)cc1,-7.85
9,Cc1c(C(=O)NC2CCS(=O)(=O)C2)oc2ccccc12 (stereo not shown),17.5
10,Cc1cc(C)n(-c2ccc(Cl)c(C(=O)O)c2)n1,27.6
11,CCCNS(=O)(=O)c1ccc(OCC(=O)N2CCN(Cc3ccc4c(c3)OCO4)CC2)c(C)c1,-61.6
12,CC(C)CC(NC(=O)C1CCC(C)CC1)C(=O)N1CCN(c2ccccn2)CC1 (stereo not shown),-47.7
13,CC1(C)CNC(=O)c2sc(N3CCOCC3)nc2C1,2.81
14,COc1ccc(C(=O)Nc2ccnn2C2CCN(C(C)CSC)CC2)cc1 (stereo not shown),1.28
15,CNC(=O)c1cc(Oc2ccc(NC(=O)Nc3ccc(Cl)c(C(F)(F)F)c3)cc2)ccn1.Cc1ccc(S(=O)(=O)O)cc1,11
16,COc1cc2[nH]c(=S)n(-c3ccccc3)c(=O)c2cc1OC,14.4
17,CCOc1ccccc1CN1C(=O)NC2(CCCCCC2)C1=O,9.32
18,O=C(NCC(c1cccs1)N1CCOCC1)c1ccc(Cl)cc1 (stereo not shown),-3.21
19,O=C(Nc1ccc(NC(=O)c2cccnc2Cl)cc1)c1cccc(Cl)c1,15.1
20,CC(C)NC(=S)NCc1cccnc1,9.15
21,CCN(CC)CCOC(=O)c1ccc(NC(=O)C2(c3ccccc3)CCCC2)cc1.Cl,-34.8
22,COc1ccc(Cl)cc1C(=O)Nc1ccc(OCC(=O)N2CCOCC2)cc1,11.9

row,SMILES,"hERG current change (%, negative = inhibition) at 10uM [%]"
1,Cc1ccc(S(=O)(=O)n2cnc3cc([N+](=O)[O-])ccc32)c(C)c1C,13.1
2,CCN1CCN(S(=O)(=O)c2ccc3ccccc3c2)CC1,-2.68
3,Cc1ccccc1C(=O)N1CCC(C(=O)Nc2ccccc2N2CCCC2)CC1,-0.721
4,Cl.N=c1sccn1Cc1ccccc1F,17.7
5,CC(=O)N1CCN(C(=O)c2cc(S(=O)(=O)Nc3ccc(S(C)(=O)=O)cc3)ccc2Cl)CC1,10.4
6,CCn1c(SCC(=O)c2cc(C)n(-c3ccc(C(=O)OC)cc3)c2C)nnc1-c1cccnc1,-3.95
7,Cc1ccc(C(=O)NC2CCN(C(=O)Nc3ccccc3Cl)CC2)cc1,-3.16
8,Cc1cccc(CN2C(=O)N/C(=C/c3ccc(C)s3)C2=O)c1,3.31
9,COc1ccc(/C=C2\SC(=S)N(N3C(=O)CCC3=O)C2=O)cc1O,7.43
10,O=C(c1sc2ccccc2c1Cl)N(Cc1ccccc1Cl)C1CCS(=O)(=O)C1 (stereo not shown),-12.3
11,Cc1cccc(Cc2nnc(CCC(=O)NCc3cn4ccccc4n3)o2)c1,-4.88
12,C=CCN1C(=NC(=O)COc2ccccc2)SC2CS(=O)(=O)CC21 (stereo not shown),8.17
13,Cc1cccc2sc(NC(=O)CSCc3ccccc3)nc12,2.45
14,COc1ccc(N(CC(=O)N/N=C/c2cc(Br)c(C)o2)S(=O)(=O)c2ccc(NC(C)=O)cc2)cc1,14.3
15,CCCCc1nc(SCc2ccc([N+](=O)[O-])cc2)n[nH]1,-15.4
16,C[C@@H]1CCC[C@]2(O[C@H](CCO)C[C@@H](O)[C@@H]2O)O1,7.2
17,NC(=O)CN1C(=O)C2CCCCN2C(=O)c2ccccc21.O=C(O)C(=O)O (stereo not shown),13.8
18,Cn1c(NC(=O)c2ccccc2)c(-c2ccccn2)c(=O)c2ccccc21,10.7
19,O=S1(=O)N=C(N/N=C/c2cccs2)c2ccccc21,24.8
20,O=C(OCc1ccccn1)c1ccc(COc2ccc3ccccc3c2)o1,16
21,O=C(COC(=O)C12CC3CC(CC(Br)(C3)C1)C2)Nc1ccc2[nH]c(=O)[nH]c2c1,-24.4
22,COCC1CCN(C(=O)c2cc(COc3ccc(-n4cncn4)cc3)on2)C1 (stereo not shown),-13
